Experimental data: the supplement of paper PMC7826260
Some of the results follow. The data describe in vitro nicking of single-stranded DNA by Rep domains at 3 µM enzyme and 37 °C for 1 h; the strands have 90 letters, of which the middle is given. A value is the log2 ratio of uncut reads to the pool without enzyme; uncut sequences lie near 0, cut ones below; no hit call is given. Counts are relative to all reads; where an enzyme cuts many sequences, the uncut ones exceed 0.

How the values were obtained:
Test in all cases: uncleaved DNA left, log2 of reads against the no-enzyme library (log2 ratio); higher = less cleavage (more negative = more Rep cleavage of the k-mer); sequences stand for … in CTCGTCCG…ACCGGAGA
[1] = test system: T1, Rep nickase domain of Muscovy duck circovirus
T1 sequence (residues 1-111, tag not shown): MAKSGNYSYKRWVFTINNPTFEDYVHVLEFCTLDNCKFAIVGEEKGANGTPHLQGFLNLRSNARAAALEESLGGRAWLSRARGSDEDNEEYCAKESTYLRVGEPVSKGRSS
Description: (§1)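 A pool of 90-nt single-stranded DNAs with seven random bases just before the constant AC of the nick site (name = the seven bases) was cut by 3 µM recombinant His6-SUMO-tagged Rep nickase domain (300 nM DNA, 50 mM HEPES pH 8.0, 50 mM NaCl, 1 mM MnCl2, 1 h, 37 °C, three replicates). Uncut DNA was amplified and sequenced.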

[2] = test system: T2, Rep nickase domain of banana bunchy top virus
T2 sequence (residues 1-94, tag not shown): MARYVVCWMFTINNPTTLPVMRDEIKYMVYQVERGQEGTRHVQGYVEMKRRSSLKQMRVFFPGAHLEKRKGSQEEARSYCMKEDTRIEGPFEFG
Description: as §1

[3] = test system: T3, Rep nickase domain of cabbage leaf curl virus
T3 sequence (residues 1-116, tag not shown): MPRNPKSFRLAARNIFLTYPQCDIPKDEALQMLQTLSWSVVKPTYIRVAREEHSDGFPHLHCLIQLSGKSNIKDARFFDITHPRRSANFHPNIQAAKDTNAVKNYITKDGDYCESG
Description: as §1

[4] = test system: T4, Rep nickase domain of chickpea chlorotic dwarf virus
T4 sequence (residues 1-124, tag not shown): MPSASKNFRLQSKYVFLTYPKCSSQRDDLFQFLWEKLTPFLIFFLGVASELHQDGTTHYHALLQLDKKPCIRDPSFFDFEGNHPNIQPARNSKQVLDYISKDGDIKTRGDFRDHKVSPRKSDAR
Description: as §1

[5] = test system: T5, Rep nickase domain of faba bean necrotic yellows virus
T5 sequence (residues 1-98, tag not shown): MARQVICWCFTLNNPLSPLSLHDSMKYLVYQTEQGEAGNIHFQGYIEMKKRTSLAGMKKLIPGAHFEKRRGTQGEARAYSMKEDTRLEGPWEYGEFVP
Description: as §1

[6] = test system: T6, Rep nickase domain of maize striate mosaic virus
T6 sequence (residues 1-117, tag not shown): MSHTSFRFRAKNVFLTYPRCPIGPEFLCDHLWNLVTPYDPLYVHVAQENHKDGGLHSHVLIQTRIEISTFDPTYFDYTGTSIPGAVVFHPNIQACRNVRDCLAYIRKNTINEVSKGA
Description: as §1

[7] = test system: T7, Rep nickase domain of porcine circovirus 2
T7 sequence (residues 2-116, tag not shown): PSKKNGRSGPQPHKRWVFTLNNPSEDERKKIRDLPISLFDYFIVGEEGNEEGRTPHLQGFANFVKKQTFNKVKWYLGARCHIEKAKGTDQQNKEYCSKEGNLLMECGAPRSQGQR
Description: as §1

[8] = test system: T8, Rep nickase domain of tomato golden mosaic virus
T8 sequence (residues 1-124, tag not shown): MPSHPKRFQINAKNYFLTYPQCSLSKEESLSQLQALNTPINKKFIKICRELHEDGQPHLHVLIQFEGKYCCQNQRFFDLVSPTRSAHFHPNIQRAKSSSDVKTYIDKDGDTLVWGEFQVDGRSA
Description: as §1

[9] = test system: T9, Rep nickase domain of tomato yellow leaf curl virus
T9 sequence (residues 1-136, tag not shown): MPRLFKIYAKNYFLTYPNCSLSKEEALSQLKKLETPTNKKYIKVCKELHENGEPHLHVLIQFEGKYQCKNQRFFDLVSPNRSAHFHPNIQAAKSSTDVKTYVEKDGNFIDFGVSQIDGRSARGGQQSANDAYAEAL
Description: as §1

[10] = test system: T10, Rep nickase domain of wheat dwarf virus
T10 sequence (residues 1-137, tag not shown): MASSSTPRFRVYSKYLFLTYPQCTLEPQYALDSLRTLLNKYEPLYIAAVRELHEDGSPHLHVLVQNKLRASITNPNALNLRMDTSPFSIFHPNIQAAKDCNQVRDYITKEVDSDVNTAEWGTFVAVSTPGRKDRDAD
Description: as §1

Sequence	uncleaved DNA left (log2) [1]	uncleaved DNA left (log2) [2]	uncleaved DNA left (log2) [3]	uncleaved DNA left (log2) [4]	uncleaved DNA left (log2) [5]	uncleaved DNA left (log2) [6]	uncleaved DNA left (log2) [7]	uncleaved DNA left (log2) [8]	uncleaved DNA left (log2) [9]	uncleaved DNA left (log2) [10]
ATCTGGA	0.167	0.0562	-0.00474	0.23	-0.0289	0.109	0.0887	0.0823	0.0393	0.118
GACGTAC	0.00739	-0.0284	0.155	0.454	0.117	0.134	-0.0077	-0.00225	0.121	0.199
GGTCCAA	-0.077	0.0225	0.411	1.2	-0.115	1.78	0.0498	-0.0623	-0.0114	0.0484
GAGACAT	0.144	0.157	1.02	2.27	0.0335	2.36	0.216	0.00502	0.101	0.245
TTAGGGT	0.142	0.105	0.442	1.35	0.0625	1.77	0.031	0.209	0.00403	0.0826
AACATAT	0.0982	0.0544	-0.0549	-1.55	0.0351	-0.497	-0.924	0.0576	-0.0976	0.000442
TGTGGAG	0.163	-0.0274	-0.525	-0.232	0.038	-0.728	0.184	0.153	0.114	-0.0615
AGGCGGG	0.0916	0.0625	-0.0868	0.101	0.089	-0.279	0.286	0.00618	0.0453	-0.00298
TTAGGAT	-0.00779	-0.00212	0.219	1.6	-0.145	1.76	0.244	0.0826	-0.104	-0.056
GCCATGA	0.0531	0.112	-0.0248	0.351	0.135	-0.355	0.146	0.134	-0.0567	-0.0763
ATCGTTG	0.0194	-0.0117	-0.324	-0.368	-0.0943	-1.01	0.0886	-0.0145	0.0254	-0.108
GAACATA	-0.0867	0.0436	0.624	0.772	-0.0263	1.91	0.115	-0.00237	0.0388	0.109
TCGACAG	0.133	0.0402	0.081	0.645	0.105	1.17	0.143	-0.0498	-0.0663	0.0436
CCTATCT	0.0159	-0.0172	-0.201	-2.16	0.033	-0.722	-0.549	0.0197	-0.0239	0.0345
ACTCCGC	-0.109	0.0255	-0.596	-0.594	-0.0452	-1.08	0.0934	-0.108	-0.123	-0.118
GGTGTCC	-0.0855	-0.0161	0.321	0.995	-0.111	1.7	0.0249	-0.21	-0.0325	0.0321
AAAGGCG	0.0817	0.0336	-0.573	0.809	0.089	-0.214	0.185	0.0138	0.0892	-0.0962
ACCGTGG	-0.0322	0.0563	-0.00136	0.51	0.00588	-0.384	0.199	-0.0381	0.00897	0.0184
TTAACTC	-0.0523	0.0155	-0.083	-1.46	-0.102	-0.447	-0.00602	-0.047	0.0223	-0.000175
TGCGCAT	0.0423	0.022	-0.0254	0.101	0.0249	-0.16	0.025	-0.0932	-0.0142	0.166

Sequence	uncleaved DNA left (log2) [1]	uncleaved DNA left (log2) [2]	uncleaved DNA left (log2) [3]	uncleaved DNA left (log2) [4]	uncleaved DNA left (log2) [5]	uncleaved DNA left (log2) [6]	uncleaved DNA left (log2) [7]	uncleaved DNA left (log2) [8]	uncleaved DNA left (log2) [9]	uncleaved DNA left (log2) [10]
TCGGGCT	-0.026	-0.149	0.212	0.324	-0.0733	0.474	0.0106	-0.0785	-0.125	-0.0651
TGCCACA	-0.214	-0.0281	0.0642	-0.718	-0.0278	-0.159	-0.113	-0.06	-0.0122	-0.0385
CACTCCG	0.0651	0.094	-0.905	-0.0588	-0.0573	-0.725	0.1	-0.0279	-0.116	-0.0839
TCATTGT	-0.233	-0.0264	-1.03	-1.26	-0.0707	-1.25	-0.099	-0.108	-0.0196	-0.205
CGTCGTA	0.0771	-0.0305	-0.0715	-0.398	0.0852	-0.321	-0.0523	-0.0161	0.0873	-0.0518
TAGGGCG	0.0362	0.0598	-0.86	-0.218	0.0766	-0.913	0.166	0.0648	0.0286	-0.0999
TTATAGT	-3.5	-0.0263	-3.12	-3.13	0.00267	-1.66	-3.39	-1.48	0.0412	-1.62
AACTATA	-0.374	-0.172	-0.363	-2.91	-0.0404	-0.741	-3.12	-0.0746	-0.0733	-0.00416
AAATTAG	0.209	0.172	-0.637	-0.0184	0.121	-0.964	0.265	0.114	0.243	0.101
AGGTTTC	0.0465	-0.0668	0.127	0.143	-0.0284	0.181	0.0175	-0.0502	-0.025	0.00189
TAAGCCC	0.0354	0.0618	-0.824	-2.1	0.0416	-0.48	0.131	-0.0332	0.02	-0.341
ATGGTGT	0.0308	-0.0595	0.0489	0.401	-0.171	0.565	0.00925	0.0466	-0.19	-0.143
TACAGGA	0.127	0.105	0.248	0.47	0.11	-0.0817	0.24	0.196	0.00702	0.0462
ACAGTCT	0.0887	0.0348	-0.416	-2.11	0.101	-0.833	0.103	0.0753	0.0201	-0.0154
GCCCAGG	0.124	0.0563	0.251	1.04	-0.0133	0.811	0.0784	0.00461	0.00223	0.0117
CACAGTC	0.0468	-0.0287	-0.262	-0.593	-0.0029	-1	0.00733	-0.0538	-0.0216	-0.0972
TTATTCT	-3.62	-0.0387	-3.22	-3.03	-0.062	-1.27	-3.06	-1.18	-0.0961	-1.22
CTGGTGG	0.0266	0.0439	0.137	0.502	0.0577	0.046	0.168	0.075	-0.0764	-0.0561
GAAGCCA	0.0685	0.0595	0.1	-0.274	0.000496	0.435	-0.067	-0.0508	0.032	0.1
ATATAGT	-3.41	-0.242	-1.54	-2.33	-0.0184	-1.49	-3.72	-0.214	-0.0662	-0.248

Sequence	uncleaved DNA left (log2) [1]	uncleaved DNA left (log2) [2]	uncleaved DNA left (log2) [3]	uncleaved DNA left (log2) [4]	uncleaved DNA left (log2) [5]	uncleaved DNA left (log2) [6]	uncleaved DNA left (log2) [7]	uncleaved DNA left (log2) [8]	uncleaved DNA left (log2) [9]	uncleaved DNA left (log2) [10]
TGCTTTG	0.0397	0.00383	-0.194	-0.339	0.0515	-0.746	0.0162	0.121	0.142	0.0981
CCTCGAC	0.0853	0.0857	0.0555	-0.596	0.0605	-0.589	0.0828	-0.0151	-0.0383	0.12
CTGGACA	0.114	0.135	0.73	1.64	-0.0636	1.95	0.38	0.156	0.0367	0.219
GGCTCCC	0.0167	0.0743	0.308	0.575	0.0607	0.958	-0.365	0.0403	0.167	0.174
CAGGTTT	-0.0164	-0.128	0.119	-0.443	0.0534	1.52	-2.44	0.0976	-0.118	0.00815
TATGGGG	0.107	-0.0229	-0.0423	0.0829	0.147	-0.505	0.134	0.113	-0.0857	-0.0225
GATGGCC	-0.115	-0.0167	0.0402	0.65	0.0141	0.67	0.0168	-0.0387	-0.0458	-0.00753
TGAATGC	0.0597	-0.042	-0.429	-0.522	-0.0165	-1.04	0.073	-0.0747	-0.142	-0.0552
GTCAGTC	0.0169	0.103	0.423	1.07	0.0414	1.48	0.0644	0.0697	0.0771	0.0863
ACACACC	0.126	0.00998	-0.14	-0.467	0.00156	-0.707	-0.00188	-0.086	-0.124	-0.018
GACTGTA	0.0628	-0.0011	0.0729	0.302	0.077	1.25	-2.14	0.0311	0.0125	0.0945
CTTTAGA	0.0103	-0.0711	-0.0483	-0.403	-0.0903	-1.01	0.0118	-0.00965	-0.0113	-0.0355
CACATGG	-0.0547	-0.0327	-0.568	-0.465	-0.194	-0.952	-0.0395	-0.0927	-0.0401	-0.0926
CGATACA	0.0844	0.159	0.165	-1.03	0.024	0.252	0.103	0.195	0.0809	0.192
GACGTCG	-0.0507	0.0375	-0.692	-0.381	-0.0655	-0.823	0.0715	-0.0995	0.0727	-0.0266
ATTCAAT	-0.437	-0.376	-0.0154	-0.342	0.00745	-0.254	-2.92	0.0319	0.0625	0.11
GCGTGAA	0.19	0.142	0.205	0.527	0.173	0.417	0.0534	0.111	0.225	-0.0365
TATACGA	0.0494	0.0111	0.111	-0.528	0.00136	-0.562	0.124	0.00832	0.0457	-0.0235
CGTGTGC	0.0964	-0.01	-0.422	-0.34	0.0515	-0.796	0.114	0.0382	0.147	0.0803
ATTCGCC	0.0462	0.0645	-0.232	-0.505	0.0645	-1.03	0.117	-0.103	0.00619	-0.0665
